Test results from the supplement of paper PMC4967469.
pIC50: −log10 of the molar value. Lines with a small IC50 respond at low doses; a fit beyond the top or the lowest dose is shown as a bound at that dose. The AUC spans the tested range (256-fold, ending at the top dose) of the same fit: 1 means no effect, lower means more sensitive. For part of these data: The top dose, if marked as inferred, comes from the curve model; the source does not state it.

Assays:
Assay in all cases: Viability of human cancer cell lines after 72 h of drug (GDSC screen)
[1] = compound: C=CC(=O)Nc1ccc(C(=O)c2sc(Nc3ccc(N4CCN(C)CC4)cc3OC)nc2N)cc1 [XMD15-27]; details: top dose 10.24 µM; top dose inferred
Method: (§1)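 Human cancer cell lines in 384-well plates, medium with 10% serum, drug for 72 h over a 256-fold dose range (nine 2-fold or five 4-fold steps up to the top dose). Adherent lines were fixed and stained with the nucleic acid dye Syto60, suspension lines read with resazurin; signal relative to control wells, capped at 0 and 100%. One two-parameter sigmoid per drug and line, fitted in a mixed model over all curves with the slope shared within a line.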

[2] = compound: CC(=O)O[C@@H]1[C@@H](OC(C)=O)[C@@H](O)[C@H](Oc2c(-c3ccc(O)cc3)oc3cc(O)cc(O)c3c2=O)O[C@H]1C [SL 0101-1]; details: top dose 10 µM; top dose inferred
Method: as §1

[3] = compound: CO[C@H]1C[C@@H]2CC[C@@H](C)[C@@](O)(O2)C(=O)C(=O)N2CCCC[C@H]2C(=O)O[C@H]([C@H](C)C[C@@H]2CC[C@@H](OC(=O)C(C)(CO)CO)[C@H](OC)C2)CC(=O)[C@H](C)/C=C(\C)[C@@H](O)[C@@H](OC)C(=O)[C@H](C)C[C@H](C)/C=C/C=C/C=C/1C [Temsirolimus]; details: top dose 0.2 µM
Method: as §1

Cell Line | AUC [1] | pIC50 [1] | AUC [2] | pIC50 [2] | AUC [3] | pIC50 [3]
PANC-04-03 (pancreas, adherent) | 0.977 | < 4.99 | 0.943 | < 5.00 | 0.901 | < 6.70
PC-3 [JPC-3] (lung adenocarcinoma, adherent) | 0.981 | < 4.99 | 0.981 | < 5.00 | 0.876 | < 6.70
PC-14 (lung adenocarcinoma, adherent) | 0.982 | < 4.99 | 0.985 | < 5.00 | 0.84 | 6.93
PCI-4B (head and neck, adherent) | 0.965 | < 4.99 | 0.974 | < 5.00 | 0.565 | 7.73
PCI-6A (head and neck, adherent) | 0.976 | < 4.99 | 0.982 | < 5.00 | 0.911 | < 6.70
PCI-15A (head and neck, adherent) | 0.987 | < 4.99 | 0.896 | < 5.00 | 0.954 | < 6.70
PCI-30 (head and neck, adherent) | 0.977 | < 4.99 | 0.972 | < 5.00 | 0.652 | 7.44
PE/CA-PJ15 (head and neck, adherent) | 0.985 | < 4.99 | 0.899 | < 5.00 | 0.797 | 6.99
PEO1 (ovary, adherent) | 0.984 | < 4.99 | 0.987 | < 5.00 | 0.882 | < 6.70
PF-382 (T-cell lymphoblastic leukaemia, suspension) | 0.921 | < 4.99 | 0.989 | < 5.00 | 0.866 | 6.85
PFSK-1 (medulloblastoma, adherent) | 0.984 | < 4.99 | 0.977 | < 5.00 | 0.471 | 7.98
PL4 (pancreas, adherent) | 0.987 | < 4.99 | 0.987 | < 5.00 | 0.907 | < 6.70
PSN1 (pancreas, adherent) | 0.986 | < 4.99 | 0.97 | < 5.00 | 0.9 | 6.73
QGP-1 (pancreas, adherent) | 0.979 | < 4.99 | 0.977 | < 5.00 | 0.949 | < 6.70
QIMR-WIL (acute myeloid leukaemia, suspension) | 0.93 | < 4.99 | 0.987 | < 5.00 | 0.737 | 7.24
RC-K8 (B-cell lymphoma, suspension) | 0.991 | < 4.99 | 0.989 | < 5.00 | 0.869 | 6.84
RCC10RGB (kidney, adherent) | 0.971 | < 4.99 | 0.961 | < 5.00 | 0.941 | < 6.70
RCC-AB (kidney, adherent) | 0.958 | < 4.99 | 0.981 | < 5.00 | 0.881 | < 6.70
RCC-FG2 (kidney, adherent) | 0.976 | < 4.99 | 0.971 | < 5.00 | 0.549 | 7.75
RCC-JF (kidney, adherent) | 0.969 | < 4.99 | 0.981 | < 5.00 | 0.559 | 7.73
RCC-JW (kidney, adherent) | 0.91 | < 4.99 | 0.986 | < 5.00 | 0.249 | 8.63
RCC-MF (kidney, adherent) | 0.971 | < 4.99 | 0.972 | < 5.00 | 0.437 | 8.10
RCM-1 (large intestine, adherent) | 0.985 | < 4.99 | 0.985 | < 5.00 | 0.977 | < 6.70
REH (B-cell leukaemia, suspension) | 0.907 | < 4.99 | 0.985 | < 5.00 | 0.855 | 6.83

Cell Line | AUC [1] | pIC50 [1] | AUC [2] | pIC50 [2] | AUC [3] | pIC50 [3]
RERF-LC-KJ (lung adenocarcinoma, adherent) | 0.987 | < 4.99 | 0.987 | < 5.00 | 0.788 | 7.04
RERF-LC-MS (lung adenocarcinoma, adherent) | 0.986 | < 4.99 | 0.987 | < 5.00 | 0.92 | < 6.70
RERF-LC-Sq1 (lung squamous cell carcinoma, adherent) | 0.972 | < 4.99 | 0.975 | < 5.00 | 0.735 | 7.08
RF-48 (stomach, adherent) | 0.949 | < 4.99 | 0.985 | < 5.00 | 0.79 | 7.00
RH-1 (rhabdomyosarcoma, adherent) | 0.979 | < 4.99 | 0.978 | < 5.00 | 0.919 | < 6.70
RKN (ovary, adherent) | 0.981 | < 4.99 | 0.985 | < 5.00 | 0.37 | 8.27
RKO (large intestine, adherent) | 0.98 | < 4.99 | 0.947 | < 5.00 | 0.759 | 7.19
RL (B-cell lymphoma, suspension) | 0.99 | < 4.99 | 0.99 | < 5.00 | 0.669 | 7.45
RO82-W-1 (thyroid, adherent) | 0.983 | < 4.99 | 0.961 | < 5.00 | 0.777 | 6.98
ROS-50 (B-cell leukaemia, suspension) | 0.985 | < 4.99 | 0.98 | < 5.00 | 0.922 | < 6.70
RPMI-2650 (head and neck, adherent) | 0.985 | < 4.99 | 0.964 | < 5.00 | 0.712 | 7.28
RPMI-6666 (Hodgkin lymphoma, suspension) | 0.933 | < 4.99 | 0.969 | < 5.00 | 0.753 | 7.10
RPMI-7951 (melanoma, adherent) | 0.95 | < 4.99 | 0.98 | < 5.00 | 0.56 | 7.74
RPMI-8226 (myeloma, suspension) | 0.955 | < 4.99 | 0.958 | < 5.00 | 0.413 | 8.13
RPMI-8402 (T-cell lymphoblastic leukaemia, suspension) | 0.918 | < 4.99 | 0.99 | < 5.00 | 0.91 | < 6.70
RPMI-8866 (chronic myeloid leukaemia, suspension) | 0.988 | < 4.99 | 0.933 | < 5.00 | 0.3 | 8.44
RT4 (bladder, adherent) | 0.986 | < 4.99 | 0.977 | < 5.00 | 0.925 | < 6.70
RVH-421 (melanoma, adherent) | 0.949 | < 4.99 | 0.976 | < 5.00 | 0.73 | 7.13
RXF393 (kidney, adherent) | 0.909 | < 4.99 | 0.978 | < 5.00 | 0.559 | 7.72
Raji (Burkitt lymphoma, suspension) | 0.989 | < 4.99 | 0.987 | < 5.00 | 0.92 | < 6.70
Ramos-2G6-4C10 (Burkitt lymphoma, suspension) | 0.986 | < 4.99 | 0.974 | < 5.00 | 0.059 | > 9.11
SAS (head and neck, adherent) | 0.976 | < 4.99 | 0.962 | < 5.00 | 0.913 | < 6.70
SAT (head and neck, adherent) | 0.973 | < 4.99 | 0.959 | < 5.00 | 0.714 | 7.15
SBC-1 (small cell lung carcinoma, suspension) | 0.988 | < 4.99 | 0.989 | < 5.00 | 0.915 | < 6.70

Cell Line | AUC [1] | pIC50 [1] | AUC [2] | pIC50 [2] | AUC [3] | pIC50 [3]
SBC-3 (small cell lung carcinoma, adherent) | 0.894 | < 4.99 | 0.973 | < 5.00 | 0.727 | 7.29
SBC-5 (small cell lung carcinoma, adherent) | 0.993 | < 4.99 | 0.993 | < 5.00 | 0.779 | 7.18
SCC-9 (head and neck, adherent) | 0.967 | < 4.99 | 0.962 | < 5.00 | 0.965 | < 6.70
SCC-25 (head and neck, adherent) | 0.975 | < 4.99 | 0.982 | < 5.00 | 0.826 | 6.84
SCH (stomach, adherent) | 0.988 | < 4.99 | 0.985 | < 5.00 | 0.811 | 6.94
SF126 (glioma, adherent) | 0.979 | < 4.99 | 0.986 | < 5.00 | 0.533 | 7.81
SF268 (glioma, adherent) | 0.975 | < 4.99 | 0.985 | < 5.00 | 0.783 | 7.04
SF295 (glioma, adherent) | 0.985 | < 4.99 | 0.97 | < 5.00 | 0.623 | 7.55
SF539 (glioma, adherent) | 0.978 | < 4.99 | 0.986 | < 5.00 | 0.765 | 7.18
SH-4 (melanoma, adherent) | 0.968 | < 4.99 | 0.975 | < 5.00 | 0.792 | 6.81
SHP-77 (small cell lung carcinoma, semi-adherent) | 0.992 | < 4.99 | 0.889 | 5.03 | 0.973 | < 6.70
SIMA (neuroblastoma, adherent) | 0.978 | < 4.99 | 0.985 | < 5.00 | 0.94 | < 6.70
SJRH30 (rhabdomyosarcoma, adherent) | 0.894 | < 4.99 | 0.984 | < 5.00 | 0.905 | < 6.70
SJSA-1 (bone, adherent) | 0.984 | < 4.99 | 0.98 | < 5.00 | 0.744 | 7.16
SK-ES-1 (Ewing sarcoma, semi-adherent) | 0.98 | < 4.99 | 0.963 | < 5.00 | 0.797 | 7.00
SK-GT-4 (oesophagus, adherent) | 0.948 | < 4.99 | 0.98 | < 5.00 | 0.506 | 7.89
SK-HEP-1 (liver, adherent) | 0.989 | < 4.99 | 0.987 | < 5.00 | 0.853 | 6.85
SK-LMS-1 (soft tissue, adherent) | 0.976 | < 4.99 | 0.987 | < 5.00 | 0.359 | 8.28
SK-MEL-1 (melanoma, suspension) | 0.993 | < 4.99 | 0.99 | < 5.00 | 0.985 | < 6.70
SK-MEL-2 (melanoma, adherent) | 0.986 | < 4.99 | 0.977 | < 5.00 | 0.785 | 7.05
SK-MEL-3 (melanoma, adherent) | 0.977 | < 4.99 | 0.984 | < 5.00 | 0.88 | < 6.70
SK-MEL-5 (melanoma, adherent) | 0.983 | < 4.99 | 0.98 | < 5.00 | 0.749 | 7.11
SK-MEL-30 (melanoma, adherent) | 0.986 | < 4.99 | 0.967 | < 5.00 | 0.865 | 6.71
SK-MES-1 (lung squamous cell carcinoma, adherent) | 0.968 | < 4.99 | 0.969 | < 5.00 | 0.833 | 6.84
